The campaign covered roughly 310,000 compounds. About 2,200 (0.71%) showed an effect of 50% or more. The effect is printed as a negative number. The list shows a part of the results.

For this test, the target named is human ether-à-go-go-related gene (hERG) potassium channel (human, UniProt Q12809). The experiment in a line: primary screen, population patch clamp on CHO cells stably expressing hERG.
Sequence of human ether-à-go-go-related gene (hERG) potassium channel (Q12809 whole entry, looked up): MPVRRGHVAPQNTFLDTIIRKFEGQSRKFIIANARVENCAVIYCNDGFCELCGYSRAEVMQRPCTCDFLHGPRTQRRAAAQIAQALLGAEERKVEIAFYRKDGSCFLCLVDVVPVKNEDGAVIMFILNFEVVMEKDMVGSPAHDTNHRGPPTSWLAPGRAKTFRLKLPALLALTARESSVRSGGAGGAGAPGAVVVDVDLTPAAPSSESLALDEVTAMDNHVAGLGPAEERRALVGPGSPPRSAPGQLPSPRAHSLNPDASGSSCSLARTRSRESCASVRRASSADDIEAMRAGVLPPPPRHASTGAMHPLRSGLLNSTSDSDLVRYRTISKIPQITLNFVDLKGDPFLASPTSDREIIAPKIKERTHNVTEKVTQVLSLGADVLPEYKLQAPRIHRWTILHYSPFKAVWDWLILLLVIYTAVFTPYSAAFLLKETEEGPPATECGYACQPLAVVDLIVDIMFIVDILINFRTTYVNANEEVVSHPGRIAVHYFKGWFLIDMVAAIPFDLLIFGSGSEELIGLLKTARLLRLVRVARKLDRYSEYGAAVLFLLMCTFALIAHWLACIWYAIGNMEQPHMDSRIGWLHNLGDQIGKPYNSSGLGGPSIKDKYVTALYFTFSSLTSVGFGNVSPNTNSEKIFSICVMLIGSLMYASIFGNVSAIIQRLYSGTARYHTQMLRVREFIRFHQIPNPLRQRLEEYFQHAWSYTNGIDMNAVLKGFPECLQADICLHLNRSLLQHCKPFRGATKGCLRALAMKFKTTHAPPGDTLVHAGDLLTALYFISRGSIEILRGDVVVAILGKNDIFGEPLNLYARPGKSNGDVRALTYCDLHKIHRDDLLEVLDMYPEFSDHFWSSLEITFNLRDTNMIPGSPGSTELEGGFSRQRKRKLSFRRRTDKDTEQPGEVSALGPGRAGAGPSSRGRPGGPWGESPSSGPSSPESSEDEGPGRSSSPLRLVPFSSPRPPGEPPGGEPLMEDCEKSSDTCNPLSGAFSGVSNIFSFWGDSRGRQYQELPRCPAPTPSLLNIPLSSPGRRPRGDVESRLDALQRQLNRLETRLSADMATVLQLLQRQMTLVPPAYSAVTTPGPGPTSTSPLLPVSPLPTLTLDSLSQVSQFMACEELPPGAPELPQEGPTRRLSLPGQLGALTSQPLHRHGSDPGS
Consider `CSc1nc(-c2ccccc2F)c(C#N)c(=O)n1C`, for which the “hERG current change (%, negative = inhibition) at 1uM” value was determined as 7.78%.
For the molecule `COc1ccc(NC2CCCN(C(=O)CCCn3cncn3)C2)cc1` (stereo not shown), the “hERG current change (%, negative = inhibition) at 1uM” value was determined as 13.3%.
Under `COc1ccc(C)cc1NC(=O)C(Sc1nncn1C)c1ccccc1` (stereo not shown) stands -0.178%; under `COc1cc2ccccc2cc1C(=O)N1CCCC1`, 9.35%.
For the molecule `O=C(N/N=C/C1CC2C=CC1C2)c1ccccc1O` (stereo not shown), the “hERG current change (%, negative = inhibition) at 1uM” value stood at 9.6%.
Under `CC(=O)N1CCN(C(=O)c2cc(-c3ccc(C)o3)nc3ccccc23)CC1` stands 2.37%.
Next, `Cn1c(CSc2ncccn2)nnc1SCC(=O)N1CCCC1`: 17.6%; `Cn1c2ccccc2c2nnc(SCC(=O)Nc3ccccc3F)nc21`: 6.28%.
Next, `Cc1sc2ncn(CC(=O)OCC(=O)NC(C)(C)C)c(=O)c2c1C`: 17%; `O=C(CN(C(=O)CCC(=O)Nc1nccs1)c1ccccc1F)NCC1CCCO1` (stereo not shown): 6.33%; `Cc1cc(OCC(=O)NCCc2ccc(S(N)(=O)=O)cc2)c2c(C)cc(=O)oc2c1`: 12%.
Regarding `COc1ccccc1NC1(C#N)CCCCC1`, the “hERG current change (%, negative = inhibition) at 1uM” value is 10.2%.
Next, `O=C(CCNC(=O)c1ccccc1Cl)NCCc1ccc(Cl)cc1`: 5.86%; `O=C(N/N=C/c1ccc2c(c1)OCO2)c1ccc(NC(=O)c2ccc(F)cc2)cc1`: 10.9%; `O=C(NC1CCCC1)C(c1ccsc1)N(Cc1ccco1)C(=O)Cc1cccs1` (stereo not shown): 1.01%.
Under `O=S(=O)(/N=C(/c1ccccc1)N1CCOCC1)c1ccc(F)cc1` stands 7.22%.
Under `Cc1oc(/N=C/c2ccc(Cl)cc2)c(C#N)c1C` stands 8.04%; under `CCN(CC)S(=O)(=O)c1ccc(NC(=O)c2ccc(CN3CCOCC3)cc2)cc1`, 8.92%.
For `CC(=O)n1cc(C2C(=O)CC(C)(C)CC2=O)c2ccccc21`, the “hERG current change (%, negative = inhibition) at 1uM” value was 4.97%.
As to `CCOC(=O)c1c(C)[nH]c2c1cc(O)c1ccccc12`, the “hERG current change (%, negative = inhibition) at 1uM” value was 10.4%.
Under `N#CCCN1CCN(S(=O)(=O)c2ccc3c(c2)OCCCO3)CC1.O=C(O)C(=O)O` stands 20%; under `Cc1ccc(CSc2nnc(Nc3ccc(C)cc3)s2)cc1`, 17.6%; under `COc1ccc(OC)c(NC2c3ccccc3C(=O)N2c2cccnc2)c1` (stereo not shown), 5.31%.
Consider `O=S(=O)(NC1CC(NS(=O)(=O)OCC(Cl)(Cl)Cl)C2CCCCC12)OCC(Cl)(Cl)Cl` (stereo not shown), for which the “hERG current change (%, negative = inhibition) at 1uM” value stood at 4.56%.
Next, `CCC(C)NC(=O)CNC(=S)N(Cc1ccccc1F)C1CCCCC1` (stereo not shown): 11.1%; `Cn1cccc1Cc1nnc(SCC(=O)N2CCc3ccccc32)n1CCc1ccccc1`: 7.66%.
On to `CC(=O)C1=C(C)NC(SCC(=O)c2ccc(Cl)cc2)=C(C#N)C1c1ccco1` (stereo not shown), for which the “hERG current change (%, negative = inhibition) at 1uM” value was determined as 15.1%.
Under `Cn1nnnc1SCc1csc(Nc2ccccc2)n1` stands 1.48%; under `Cc1cccc(OCC(=O)NCCNC(=O)c2ccco2)c1`, -1.5%.
As for `Cc1nn(C(=O)c2nn(C)cc2Cl)c(C)c1Br`, the “hERG current change (%, negative = inhibition) at 1uM” value was determined as 2.59%.
Next, `COc1ccc(Br)cc1CN1CCN(C(=O)c2cccc(OC)c2OC)CC1.O=C(O)C(=O)O`: 4.85%; `O=C(NCC(=O)N(Cc1ccc(F)cc1)C(C(=O)NC1CCCC1)c1ccco1)c1ccco1` (stereo not shown): -5.26%.
Next, `COc1cccc(CNC(=O)C2CCN(S(=O)(=O)c3ccc(Br)s3)CC2)c1`: -10.1%; `O=C(/C=C/c1cccc(F)c1)OCC(=O)N1CCCc2ccccc21`: 8.28%.
Turning to `Cc1nnc(SCC(=O)NNC(=O)c2ccco2)s1`, the “hERG current change (%, negative = inhibition) at 1uM” value is reported as -1.69%.
Take `Cc1ccc(C(=O)NCC(=O)NCC(=O)OCC(=O)c2ccc(Br)cc2)cc1`: the “hERG current change (%, negative = inhibition) at 1uM” value is reported as 10.5%.
For the molecule `CCn1c(CNC(=O)c2cccc(C)c2)nnc1SCC(=O)Nc1cccc(OC)c1`, the “hERG current change (%, negative = inhibition) at 1uM” value is listed as -4.04%.
For the molecule `CC(C#CCN1CCCCC1)OCCOCc1ccccc1.Cl` (stereo not shown), the “hERG current change (%, negative = inhibition) at 1uM” value turned out to be 7.95%.
Under `COC(=O)c1c(C(=O)OC)c2n(c1C)Cc1ccccc1C2` stands -5.49%.
Turning to `NS(=O)(=O)c1cccc(C(=O)NC2CCSc3ccccc32)c1` (stereo not shown), the “hERG current change (%, negative = inhibition) at 1uM” value stood at 6.64%.
Regarding `C/C(=N\NC(=S)NC(C)C)c1ccc2c(c1)OCCO2`, the “hERG current change (%, negative = inhibition) at 1uM” value turned out to be 11.4%.
Regarding `O=C(N1CCCCCC1)N1CCN(S(=O)(=O)N2CCCCC2)CC1`, the “hERG current change (%, negative = inhibition) at 1uM” value is recorded as -1.87%.
For `COc1ccc(-n2cnnc2SCC(=O)NCc2cccs2)cc1`, the “hERG current change (%, negative = inhibition) at 1uM” value is on record as 14.6%.
`Cc1ccsc1C(=O)NCC(=O)OCc1ccccc1`: the “hERG current change (%, negative = inhibition) at 1uM” value stood at 4.3%.
Under `Cn1cc(CN2CCN(CCc3ccccc3)C(CCO)C2)cn1` (stereo not shown) stands 7.67%.
Take `CSc1cccc(NC(=O)C(C)C)c1`: the “hERG current change (%, negative = inhibition) at 1uM” value is 11.9%.
Under `Cl.OC(c1cc(C(F)(F)F)nc2c(C(F)(F)F)cccc12)C1CCCCN1` (stereo not shown) stands 14%; under `O=C(NC1CCN(Cc2ccccc2)CC1)c1cn(-c2ccccc2)nc1-c1cccnc1`, -15.7%; under `CC(Nc1ccc2c(c1)OCCO2)C(=O)N1c2ccccc2CC1C` (stereo not shown), 5.23%.
Next, `COC(=O)c1cc(NS(=O)(=O)c2ccc(C(C)C)cc2)ccc1N1CCOCC1`: 8.75%.
Next, `O=C(NNC(=O)c1sc2ccccc2c1Cl)Nc1ccc(Cl)cc1`: 2.48%.
In the case of `Nn1c(SCC(=O)Nc2ccccc2F)nnc1-c1cccs1`, the “hERG current change (%, negative = inhibition) at 1uM” value is listed as -37.4%.
Turning to `O=C(c1ccc([N+](=O)[O-])cc1)N1CCN(C(=O)c2ccco2)CC1`, the “hERG current change (%, negative = inhibition) at 1uM” value is -8.23%.
For the molecule `CCCc1c(C)c2ccc(OCC(C)=O)cc2oc1=O`, the “hERG current change (%, negative = inhibition) at 1uM” value was -1.77%.
Regarding `CC(Sc1nnc(-c2ccc(OC(F)F)cc2)n1N)C(=O)NCC1CCCO1` (stereo not shown), the “hERG current change (%, negative = inhibition) at 1uM” value was determined as 7.86%.
Under `O=c1[nH]c(-c2ccccn2)nc2ccccc12` stands 5.94%; under `CCOC(=O)c1sc(NC(=O)CSc2nnc(C)s2)c(C(=O)OCC)c1C`, -5.96%; under `O=C(Nc1ccc(S(=O)(=O)Nc2ncccn2)cc1)c1cccc(Br)c1`, 11.8%.

The record behind these values is PMC4336329 (PLoS ONE, 2015).
